# Experimental data as given in a collection of fitness landscapes (doi:10.1126/science.1257360).
# Some of the results follow.
# B1: PhoQ; a variant is named by its letters at X, in order, P23837 (parent)
# chain: MKKLLRLFFPLSLRVRFLLATAAVVLVLSLAYGMVALIGYSVSFDKTTFRLLRGESNLFYTLAKWENNKLHVELPENIDKQSPTMTLIYDENGQLLWAQRDVPWLMKMIQPDWLKSNGFHEIEADVNDTSLLLSGDHSIQQQLQEVREDDDDAEMTHSVAVNVYPATSRMPKLTIVVVDTIPVELKSSYMVWSWFIYVLSANLLLVIPLLWVAAWWSLRPIEALAKEVRELEEHNRELLNPATTRELTSLVRNLNRLLKSERERYDKYRTTLTDLTHSLKTPLXXLQXXLRSLRSEKMSVSDAEPVMLEQISRISQQIGYYLHRASMRGGTLLSRELHPVAPLLDNLTSALNKVYQRKGVNISLDISPEISFVGEQNDFVEVMGNVLDNACKYCLEFVEISARQTDEHLYIVVEDDGPGIPLSKREVIFDRGQRVDTLRPGQGVGLAVAREITEQYEGKIVAGESMLGGARMEVIFGRQHSAPKDE
# Variants of: B1
# Experiment: enrichment ratio after two sorts for PhoP signalling (ratio (wild type AVST 3.29)); higher = more functional
# Conditions: with PhoP (E. coli)
row,Variant,enrichment ratio
1,KDGA,≤ 0.25
2,MQTF,≤ 0.25
3,WQNM,≤ 0.25
4,PALA,≤ 0.25
5,DCKH,≤ 0.25
6,MNPM,≤ 0.25
7,IQFC,≤ 0.25
8,LPEN,≤ 0.25
9,IYEF,≤ 0.25
10,SIHV,≤ 0.25
11,PIGG,≤ 0.25
12,PMYD,≤ 0.25
13,SRYD,≤ 0.25
14,EEFR,≤ 0.25
15,FGVE,≤ 0.25
16,IMVG,≤ 0.25
17,DNEM,≤ 0.25
18,PPVA,≤ 0.25
19,SQCG,24.3
20,LNWP,≤ 0.25
21,WKMD,≤ 0.25
22,TKAK,≤ 0.25
23,LANT,≤ 0.25
24,KSGK,≤ 0.25

row,Variant,enrichment ratio
1,LRWR,≤ 0.25
2,SWNH,≤ 0.25
3,TGWG,5.4
4,NYYP,≤ 0.25
5,YKAA,≤ 0.25
6,WHGD,≤ 0.25
7,FLRV,≤ 0.25
8,MQWV,≤ 0.25
9,DYQQ,≤ 0.25
10,YFRM,≤ 0.25
11,AHFG,≤ 0.25
12,AMKI,≤ 0.25
13,NRRW,≤ 0.25
14,KVAT,≤ 0.25
15,NWAE,≤ 0.25
16,RFNK,≤ 0.25
17,IQRP,≤ 0.25
18,FSFG,≤ 0.25
19,YFPV,≤ 0.25
20,LMHF,≤ 0.25
21,HFRK,≤ 0.25
22,AMGT,≤ 0.25
23,GQHH,≤ 0.25
24,LRMR,≤ 0.25

row,Variant,enrichment ratio
1,MHPS,≤ 0.25
2,KVAQ,≤ 0.25
3,WFDY,≤ 0.25
4,PSGK,≤ 0.25
5,APQE,≤ 0.25
6,FLIF,≤ 0.25
7,NRVR,≤ 0.25
8,KPMS,≤ 0.25
9,CSSS,≤ 0.25
10,SKSR,≤ 0.25
11,QRDM,≤ 0.25
12,SSQG,6.44
13,EHDN,≤ 0.25
14,QINA,≤ 0.25
15,MKVH,≤ 0.25
16,KPNL,≤ 0.25
17,SELM,15.6
18,PHLK,≤ 0.25
19,REME,≤ 0.25
20,WKSY,≤ 0.25
21,YWDG,≤ 0.25
22,PTYW,≤ 0.25
23,QKSD,≤ 0.25
24,LNGK,≤ 0.25

row,Variant,enrichment ratio
1,TWWF,≤ 0.25
2,VIHY,≤ 0.25
3,ESMS,≤ 0.25
4,NVFE,≤ 0.25
5,IPKA,≤ 0.25
6,RSRL,≤ 0.25
7,KFVC,≤ 0.25
8,DRTR,≤ 0.25
9,EDDW,≤ 0.25
10,SWKG,≤ 0.25
11,YDEC,≤ 0.25
12,WDAT,≤ 0.25
13,QPLI,≤ 0.25
14,TMTN,13.4
15,IMLL,≤ 0.25
16,NMHI,≤ 0.25
17,LMDK,≤ 0.25
18,TYKH,≤ 0.25
19,THPD,≤ 0.25
20,FRES,≤ 0.25
21,TKLY,16.4
22,SYMF,≤ 0.25
23,YDGV,≤ 0.25
24,LYML,≤ 0.25

row,Variant,enrichment ratio
1,WMEF,≤ 0.25
2,CDFY,≤ 0.25
3,VGCW,≤ 0.25
4,WHFK,≤ 0.25
5,PAMH,≤ 0.25
6,AAIC,≤ 0.25
7,EVAW,≤ 0.25
8,HPRI,≤ 0.25
9,PLQS,≤ 0.25
10,DEID,≤ 0.25
11,YKWD,≤ 0.25
12,YYGF,≤ 0.25
13,RDIP,≤ 0.25
14,RCQM,≤ 0.25
15,DNQG,≤ 0.25
16,HDIP,≤ 0.25
17,MCFH,≤ 0.25
18,PLDR,≤ 0.25
19,FMYG,≤ 0.25
20,DRAR,≤ 0.25
21,VSAC,≤ 0.25
22,MVAR,1.57
23,KGYS,≤ 0.25
24,MRTW,≤ 0.25

row,Variant,enrichment ratio
1,TTFS,0.795
2,WMPL,≤ 0.25
3,IQYL,≤ 0.25
4,RVED,≤ 0.25
5,DQWP,≤ 0.25
6,ERMN,≤ 0.25
7,KSSE,≤ 0.25
8,CNSS,≤ 0.25
9,TRHR,≤ 0.25
10,HCKK,≤ 0.25
11,PSTW,≤ 0.25
12,PMEA,≤ 0.25
13,GKQL,≤ 0.25
14,IPIQ,≤ 0.25
15,AKGS,≤ 0.25
16,TCAQ,15.5
17,FPPT,≤ 0.25
18,EHAP,≤ 0.25
19,EMLL,≤ 0.25
20,ANQM,≤ 0.25
21,VTTP,≤ 0.25
22,NDLP,≤ 0.25
23,VLVD,≤ 0.25
24,MCWM,16.4

row,Variant,enrichment ratio
1,KIFK,≤ 0.25
2,IKRS,≤ 0.25
3,RCNG,≤ 0.25
4,MEVY,6.01
5,DRQI,≤ 0.25
6,VCKI,≤ 0.25
7,LHVS,≤ 0.25
8,NDSH,≤ 0.25
9,LYQK,≤ 0.25
10,WLFL,≤ 0.25
11,IKNG,≤ 0.25
12,LVKG,≤ 0.25
13,LDMI,≤ 0.25
14,FKGI,≤ 0.25
15,WFWW,≤ 0.25
16,IQMY,≤ 0.25
17,LNKW,≤ 0.25
18,TKNH,11.4
19,GQWF,≤ 0.25
20,SRFH,≤ 0.25
21,HEGS,≤ 0.25
22,WMIL,≤ 0.25
23,NEFP,≤ 0.25
24,PYNG,≤ 0.25

row,Variant,enrichment ratio
1,IEIC,≤ 0.25
2,NHIE,≤ 0.25
3,WKRK,≤ 0.25
4,YQAL,≤ 0.25
5,NGYK,≤ 0.25
6,GEFH,≤ 0.25
7,SQVD,≤ 0.25
8,LGSE,≤ 0.25
9,QYDI,≤ 0.25
10,ITAY,≤ 0.25
11,DPAK,≤ 0.25
12,HHRL,≤ 0.25
13,HIIV,≤ 0.25
14,YWIF,≤ 0.25
15,YSNF,≤ 0.25
16,FTWS,≤ 0.25
17,FIPV,≤ 0.25
18,WGRW,≤ 0.25
19,AIGM,8.76
20,KLWP,≤ 0.25
21,MSFV,6.53
22,PSPE,≤ 0.25
23,SVTP,≤ 0.25
24,NWIR,≤ 0.25

row,Variant,enrichment ratio
1,LQEH,≤ 0.25
2,PNGK,≤ 0.25
3,HEWW,≤ 0.25
4,FKET,≤ 0.25
5,PQKF,≤ 0.25
6,EFAE,≤ 0.25
7,EDVT,≤ 0.25
8,SSNQ,1.31
9,VGSL,0.336
10,VIHM,≤ 0.25
11,LAST,≤ 0.25
12,MWFH,≤ 0.25
13,NTWP,≤ 0.25
14,ALYI,≤ 0.25
15,FGLA,12.2
16,WFKK,≤ 0.25
17,YGDF,≤ 0.25
18,QICY,≤ 0.25
19,IENG,≤ 0.25
20,MSHR,≤ 0.25
21,FAVD,≤ 0.25
22,KFSH,≤ 0.25
23,GRAG,≤ 0.25
24,SVKN,≤ 0.25

row,Variant,enrichment ratio
1,VIHF,≤ 0.25
2,DDDG,≤ 0.25
3,DTSW,≤ 0.25
4,FVSW,≤ 0.25
5,HRVT,≤ 0.25
6,SLWS,≤ 0.25
7,VNYF,≤ 0.25
8,QSMF,≤ 0.25
9,YANA,≤ 0.25
10,KKAG,≤ 0.25
11,HDCN,≤ 0.25
12,HEHD,≤ 0.25
13,VSKP,≤ 0.25
14,MMDW,≤ 0.25
15,RRPD,≤ 0.25
16,TGRD,≤ 0.25
17,VFQW,≤ 0.25
18,HETM,≤ 0.25
19,APGK,≤ 0.25
20,AENT,10.7
21,VYCH,≤ 0.25
22,PHMT,≤ 0.25
23,RENP,≤ 0.25
24,RYYK,≤ 0.25

row,Variant,enrichment ratio
1,EDAM,≤ 0.25
2,YCKK,≤ 0.25
3,GTEK,≤ 0.25
4,FIYI,≤ 0.25
5,IDIY,≤ 0.25
6,QYMA,≤ 0.25
7,FHYK,≤ 0.25
8,RTLP,≤ 0.25
9,QYFE,≤ 0.25
10,NQVK,≤ 0.25
11,SGVT,8.24
12,IICI,≤ 0.25
13,LQRV,≤ 0.25
14,YGKL,1.12
15,TKSR,≤ 0.25
16,VEHG,≤ 0.25
17,TIWM,≤ 0.25
18,FNQI,≤ 0.25
19,KLRN,≤ 0.25
20,EPYW,≤ 0.25
21,TQHK,≤ 0.25
22,YIMA,≤ 0.25
23,RLDA,≤ 0.25
24,SYTV,0.308

row,Variant,enrichment ratio
1,YHSM,≤ 0.25
2,GMYH,≤ 0.25
3,KHRM,≤ 0.25
4,HHHA,≤ 0.25
5,FEIG,≤ 0.25
6,NMWR,≤ 0.25
7,NAHV,≤ 0.25
8,RQCQ,≤ 0.25
9,RYTV,≤ 0.25
10,AWCM,≤ 0.25
11,HQMN,≤ 0.25
12,NAWY,≤ 0.25
13,DWDQ,≤ 0.25
14,QSPN,≤ 0.25
15,SMQC,≤ 0.25
16,LSFL,8
17,VNDY,≤ 0.25
18,TCTL,20.7
19,WPAP,≤ 0.25
20,NEGR,≤ 0.25
21,TASN,9.06
22,GISQ,6.68
23,MPLF,≤ 0.25
24,FICM,12.9

row,Variant,enrichment ratio
1,VTRR,≤ 0.25
2,RMYG,≤ 0.25
3,QFAP,≤ 0.25
4,KHRY,≤ 0.25
5,AELR,7.91
6,MQYE,≤ 0.25
7,YAGA,≤ 0.25
8,NENY,≤ 0.25
9,DAYF,≤ 0.25
10,KTEL,≤ 0.25
11,NWIA,≤ 0.25
12,SHDC,≤ 0.25
13,RRER,≤ 0.25
14,QQHF,≤ 0.25
15,EDGT,≤ 0.25
16,RDLQ,≤ 0.25
17,REHN,≤ 0.25
18,QKLD,≤ 0.25
